{
  "source": "the supplement of paper PMC8728848",
  "test_in_all_cases": "glycan array binding signal (z-score within array); higher = stronger binding",
  "conditions_in_all_cases": "glycan notation: IUPAC condensed, linker removed",
  "key": {"GalNAc(b1-3)Gal": {"biological_target": "GalNAc(b1-3)Gal", "how_it_was_run": "(§1)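 Glycan array data came from 3228 arrays in the Consortium for Functional Glycomics database, and only arrays with an available protein sequence were kept. Glycan names were put into IUPAC-condensed notation, and columns mapping to the same glycan were averaged. The binding signal is a within-array Z-score, averaged across arrays of one protein sequence run at different concentrations or buffers and across linkers. A negative Z-score can be read as non-binding.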"}, "[1]": {"biological_target": "GalNAc(b1-3)Gal(a1-4)Gal(b1-4)GlcNAc", "how_it_was_run": "as §1"}, "[2]": {"biological_target": "GalNAc(b1-3)Gal(a1-4)Gal(b1-4)GlcNAc(b1-3)Gal(b1-4)Glc", "how_it_was_run": "as §1"}, "[3]": {"biological_target": "GalNAc(b1-3)Gal(a1-6)Gal(b1-4)Glc", "how_it_was_run": "as §1"}, "GalNAc(b1-3)GalNAc": {"biological_target": "GalNAc(b1-3)GalNAc", "how_it_was_run": "as §1"}, "GalNAc(b1-3)GlcNAc": {"biological_target": "GalNAc(b1-3)GlcNAc", "how_it_was_run": "as §1"}, "GalNAc(b1-4)Gal(b1-4)Glc": {"biological_target": "GalNAc(b1-4)Gal(b1-4)Glc", "how_it_was_run": "as §1"}, "GalNAc(b1-4)GlcNAc": {"biological_target": "GalNAc(b1-4)GlcNAc", "how_it_was_run": "as §1"}, "[4]": {"biological_target": "GalNAc(b1-4)GlcNAc(b1-2)Man", "how_it_was_run": "as §1"}, "[5]": {"biological_target": "GalNAc(b1-4)GlcNAc(b1-2)Man(a1-3)[GalNAc(b1-4)GlcNAc(b1-2)Man(a1-6)]Man(b1-4)GlcNAc(b1-4)GlcNAc", "how_it_was_run": "as §1"}, "[6]": {"biological_target": "GalNAc(b1-4)GlcNAc(b1-3)GalNAc(b1-4)GlcNAc", "how_it_was_run": "as §1"}, "GalNAc(b1-4)GlcNAc6S": {"biological_target": "GalNAc(b1-4)GlcNAc6S", "how_it_was_run": "as §1"}, "GalNAc(b1-6)GalNAc": {"biological_target": "GalNAc(b1-6)GalNAc", "how_it_was_run": "as §1"}, "GalNAc3S(b1-4)GlcNAc": {"biological_target": "GalNAc3S(b1-4)GlcNAc", "how_it_was_run": "as §1"}, "GalNAc3S(b1-4)GlcNAc3S": {"biological_target": "GalNAc3S(b1-4)GlcNAc3S", "how_it_was_run": "as §1"}, "[7]": {"biological_target": "GalNAc3S(b1-4)[Fuc(a1-3)]GlcNAc", "how_it_was_run": "as §1"}, "GalNAc4S6S(b1-4)GlcNAc": {"biological_target": "GalNAc4S6S(b1-4)GlcNAc", "how_it_was_run": "as §1"}, "GalNAc6S(b1-4)GlcNAc": {"biological_target": "GalNAc6S(b1-4)GlcNAc", "how_it_was_run": "as §1"}, "Glc(a1-4)Glc": {"biological_target": "Glc(a1-4)Glc", "how_it_was_run": "as §1"}, "[8]": {"biological_target": "Glc(a1-4)Glc(a1-4)Glc(a1-4)Glc", "how_it_was_run": "as §1"}, "Glc(a1-6)Glc(a1-6)Glc": {"biological_target": "Glc(a1-6)Glc(a1-6)Glc", "how_it_was_run": "as §1"}, "[9]": {"biological_target": "Glc(a1-6)Glc(a1-6)Glc(a1-6)Glc", "how_it_was_run": "as §1"}, "Glc(b1-4)Glc": {"biological_target": "Glc(b1-4)Glc", "how_it_was_run": "as §1"}, "Glc(b1-6)Glc": {"biological_target": "Glc(b1-6)Glc", "how_it_was_run": "as §1"}, "GlcA(b1-3)Gal": {"biological_target": "GlcA(b1-3)Gal", "how_it_was_run": "as §1"}, "GlcA(b1-3)GlcNAc": {"biological_target": "GlcA(b1-3)GlcNAc", "how_it_was_run": "as §1"}, "GlcA(b1-6)Gal": {"biological_target": "GlcA(b1-6)Gal", "how_it_was_run": "as §1"}, "[10]": {"biological_target": "GlcA3S(b1-3)Gal(b1-4)GlcNAc(b1-2)Man", "how_it_was_run": "as §1"}, "[11]": {"biological_target": "GlcA3S(b1-3)Gal(b1-4)GlcNAc(b1-3)Gal(b1-4)Glc", "how_it_was_run": "as §1"}, "[12]": {"biological_target": "GlcNAc(a1-3)Gal(b1-4)GlcNAc", "how_it_was_run": "as §1"}, "[13]": {"biological_target": "GlcNAc(a1-4)Gal(b1-3)GlcNAc", "how_it_was_run": "as §1"}, "[14]": {"biological_target": "GlcNAc(a1-4)Gal(b1-4)GalNAc", "how_it_was_run": "as §1"}, "[15]": {"biological_target": "GlcNAc(a1-4)Gal(b1-4)GlcNAc", "how_it_was_run": "as §1"}, "[16]": {"biological_target": "GlcNAc(a1-4)Gal(b1-4)GlcNAc(b1-3)Gal(b1-4)Glc", "how_it_was_run": "as §1"}, "[17]": {"biological_target": "GlcNAc(a1-4)Gal(b1-4)GlcNAc(b1-3)Gal(b1-4)GlcNAc", "how_it_was_run": "as §1"}, "[18]": {"biological_target": "GlcNAc(a1-4)Gal(b1-4)GlcNAc(b1-3)Gal(b1-4)GlcNAc(b1-3)Gal(b1-4)GlcNAc", "how_it_was_run": "as §1"}, "[19]": {"biological_target": "GlcNAc(a1-4)Gal(b1-4)GlcNAc(b1-3)Gal(b1-4)[Fuc(a1-3)]GlcNAc(b1-3)Gal(b1-4)[Fuc(a1-3)]GlcNAc", "how_it_was_run": "as §1"}, "[20]": {"biological_target": "GlcNAc(a1-6)Gal(b1-4)GlcNAc", "how_it_was_run": "as §1"}, "[21]": {"biological_target": "GlcNAc(b1-2)Gal(b1-3)GalNAc", "how_it_was_run": "as §1"}, "[22]": {"biological_target": "GlcNAc(b1-2)Man(a1-3)[GlcNAc(b1-2)Man(a1-6)]Man(b1-4)GlcNAc(b1-4)GlcNAc", "how_it_was_run": "as §1"}, "[23]": {"biological_target": "GlcNAc(b1-2)Man(a1-3)[GlcNAc(b1-2)Man(a1-6)]Man(b1-4)GlcNAc(b1-4)[Fuc(a1-6)]GlcNAc", "how_it_was_run": "as §1"}, "[24]": {"biological_target": "GlcNAc(b1-2)Man(a1-3)[GlcNAc(b1-4)][GlcNAc(b1-2)Man(a1-6)]Man(b1-4)GlcNAc(b1-4)GlcNAc", "how_it_was_run": "as §1"}, "[25]": {"biological_target": "GlcNAc(b1-2)Man(a1-3)[GlcNAc(b1-4)][GlcNAc(b1-2)Man(a1-6)]Man(b1-4)GlcNAc(b1-4)[Fuc(a1-6)]GlcNAc", "how_it_was_run": "as §1"}, "[26]": {"biological_target": "GlcNAc(b1-2)[GlcNAc(b1-4)]Man(a1-3)[GlcNAc(b1-2)Man(a1-6)]Man(b1-4)GlcNAc(b1-4)GlcNAc", "how_it_was_run": "as §1"}, "[27]": {"biological_target": "GlcNAc(b1-2)[GlcNAc(b1-4)]Man(a1-3)[GlcNAc(b1-4)][GlcNAc(b1-2)Man(a1-6)]Man(b1-4)GlcNAc(b1-4)GlcNAc", "how_it_was_run": "as §1"}},
  "note": "Some of the results follow.",
  "data": [
    {"binder": "HPA (Helix pomatia), Q575S3 (protein) MWAHLTGLLLICALSLSAAQRAQTGEIDCGSDSSWPKDPSDNPNRDNTREIVKHVTFSPQFCREPKVILSVTTLDAEHTKNLRYEARLKSVSPSGLSASCYSWHDGTIYRMKLSWLAVED", "values": [
      {"measurement": "glycan array binding signal (z-score)", "setting": "GalNAc(b1-3)Gal", "value": -0.228},
      {"measurement": "glycan array binding signal (z-score)", "setting": "[1]", "value": -0.249},
      {"measurement": "glycan array binding signal (z-score)", "setting": "[2]", "value": -0.258},
      {"measurement": "glycan array binding signal (z-score)", "setting": "[3]", "value": -0.248},
      {"measurement": "glycan array binding signal (z-score)", "setting": "GalNAc(b1-3)GalNAc", "value": -0.27},
      {"measurement": "glycan array binding signal (z-score)", "setting": "GalNAc(b1-3)GlcNAc", "value": -0.266},
      {"measurement": "glycan array binding signal (z-score)", "setting": "GalNAc(b1-4)Gal(b1-4)Glc", "value": -0.239},
      {"measurement": "glycan array binding signal (z-score)", "setting": "GalNAc(b1-4)GlcNAc", "value": -0.262},
      {"measurement": "glycan array binding signal (z-score)", "setting": "[4]", "value": -0.256},
      {"measurement": "glycan array binding signal (z-score)", "setting": "[5]", "value": -0.2},
      {"measurement": "glycan array binding signal (z-score)", "setting": "[6]", "value": -0.26},
      {"measurement": "glycan array binding signal (z-score)", "setting": "GalNAc(b1-4)GlcNAc6S", "value": -0.261},
      {"measurement": "glycan array binding signal (z-score)", "setting": "GalNAc(b1-6)GalNAc", "value": -0.253},
      {"measurement": "glycan array binding signal (z-score)", "setting": "GalNAc3S(b1-4)GlcNAc", "value": -0.254},
      {"measurement": "glycan array binding signal (z-score)", "setting": "GalNAc3S(b1-4)GlcNAc3S", "value": -0.263},
      {"measurement": "glycan array binding signal (z-score)", "setting": "[7]", "value": -0.26},
      {"measurement": "glycan array binding signal (z-score)", "setting": "GalNAc4S6S(b1-4)GlcNAc", "value": -0.265},
      {"measurement": "glycan array binding signal (z-score)", "setting": "GalNAc6S(b1-4)GlcNAc", "value": -0.261},
      {"measurement": "glycan array binding signal (z-score)", "setting": "Glc(a1-4)Glc", "value": -0.26},
      {"measurement": "glycan array binding signal (z-score)", "setting": "[8]", "value": -0.251},
      {"measurement": "glycan array binding signal (z-score)", "setting": "Glc(a1-6)Glc(a1-6)Glc", "value": -0.262},
      {"measurement": "glycan array binding signal (z-score)", "setting": "[9]", "value": -0.253},
      {"measurement": "glycan array binding signal (z-score)", "setting": "Glc(b1-4)Glc", "value": -0.26},
      {"measurement": "glycan array binding signal (z-score)", "setting": "Glc(b1-6)Glc", "value": -0.266},
      {"measurement": "glycan array binding signal (z-score)", "setting": "GlcA(b1-3)Gal", "value": -0.262},
      {"measurement": "glycan array binding signal (z-score)", "setting": "GlcA(b1-3)GlcNAc", "value": -0.223},
      {"measurement": "glycan array binding signal (z-score)", "setting": "GlcA(b1-6)Gal", "value": -0.262},
      {"measurement": "glycan array binding signal (z-score)", "setting": "[10]", "value": -0.254},
      {"measurement": "glycan array binding signal (z-score)", "setting": "[11]", "value": -0.256},
      {"measurement": "glycan array binding signal (z-score)", "setting": "[12]", "value": 4.69},
      {"measurement": "glycan array binding signal (z-score)", "setting": "[13]", "value": 2.46},
      {"measurement": "glycan array binding signal (z-score)", "setting": "[14]", "value": 1.46},
      {"measurement": "glycan array binding signal (z-score)", "setting": "[15]", "value": 2.55},
      {"measurement": "glycan array binding signal (z-score)", "setting": "[16]", "value": 3.77},
      {"measurement": "glycan array binding signal (z-score)", "setting": "[17]", "value": 4.37},
      {"measurement": "glycan array binding signal (z-score)", "setting": "[18]", "value": 4.21},
      {"measurement": "glycan array binding signal (z-score)", "setting": "[19]", "value": 2.8},
      {"measurement": "glycan array binding signal (z-score)", "setting": "[20]", "value": 0.921},
      {"measurement": "glycan array binding signal (z-score)", "setting": "[21]", "value": -0.258},
      {"measurement": "glycan array binding signal (z-score)", "setting": "[22]", "value": -0.268},
      {"measurement": "glycan array binding signal (z-score)", "setting": "[23]", "value": -0.257},
      {"measurement": "glycan array binding signal (z-score)", "setting": "[24]", "value": -0.245},
      {"measurement": "glycan array binding signal (z-score)", "setting": "[25]", "value": -0.264},
      {"measurement": "glycan array binding signal (z-score)", "setting": "[26]", "value": -0.181},
      {"measurement": "glycan array binding signal (z-score)", "setting": "[27]", "value": -0.201}
    ]}
  ]
}
